In the supplement of paper PMC4967469:

Tests used:
Experiment in all cases: Viability of human cancer cell lines after 72 h of drug (GDSC screen)
[1] = compound: COc1cc2c(Oc3ccc(NC(=O)C4(C(=O)Nc5ccc(F)cc5)CC4)cc3F)ccnc2cc1OCCCN1CCOCC1 [XL-880]; settings: top dose 5.12 µM; top dose inferred
Protocol: (§1)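 Human cancer cell lines in 384-well plates, medium with 10% serum, drug for 72 h over a 256-fold dose range (nine 2-fold or five 4-fold steps up to the top dose). Adherent lines were fixed and stained with the nucleic acid dye Syto60, suspension lines read with resazurin; signal relative to control wells, capped at 0 and 100%. One two-parameter sigmoid per drug and line, fitted in a mixed model over all curves with the slope shared within a line.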

[2] = compound: Oc1ccc2ccccc2c1SSc1c(O)ccc2ccccc12 [IPA-3]; settings: top dose 32 µM; top dose inferred
Protocol: as §1

[3] = compound: CN1CCc2c(c3ccccc3n2Cc2ccc(C(=O)NO)cc2)C1 [Tubastatin A]; settings: top dose 20 µM
Protocol: as §1

[4] = compound: CO[C@H]1C[C@@H]2CC[C@@H](C)[C@@](O)(O2)C(=O)C(=O)N2CCCC[C@H]2C(=O)O[C@H]([C@H](C)C[C@@H]2CC[C@@H](O)[C@H](OC)C2)CC(=O)[C@H](C)/C=C(\C)[C@@H](O)[C@@H](OC)C(=O)[C@H](C)C[C@H](C)/C=C/C=C/C=C/1C [Rapamycin]; settings: top dose 0.1 µM; top dose inferred
Protocol: as §1

[5] = compound: O=C(NOCC1CC1)c1ccc(F)c(F)c1Nc1ccc(I)cc1Cl [CI-1040]; settings: top dose 10 µM; top dose inferred
Protocol: as §1

[6] = compound: Cn1nnc2c(C(N)=O)ncn2c1=O [Temozolomide]; settings: top dose 30 µM
Protocol: as §1

[7] = compound: CCCC[C@@H](C=O)NC(=O)[C@H](CC(C)C)NC(=O)[C@H](CC(C)C)NC(=O)OCc1ccccc1 [Z-LLNle-CHO]; settings: top dose 2.56 µM; top dose inferred
Protocol: as §1

[8] = compound: CCC(=O)N1CCN(c2ccc(-n3c(=O)ccc4cnc5ccc(-c6cnc7ccccc7c6)cc5c43)cc2C(F)(F)F)CC1 [JW-7-52-1]; settings: top dose 1.2 µM; top dose inferred
Protocol: as §1

Row | Cell Line | AUC [1] | IC50 [1] [nM] | AUC [2] | IC50 [2] [nM] | AUC [3] | IC50 [3] [nM] | AUC [4] | IC50 [4] [nM] | AUC [5] | IC50 [5] [nM] | AUC [6] | IC50 [6] [nM] | AUC [7] | IC50 [7] [nM] | AUC [8] | IC50 [8] [nM]
1 | KARPAS-299 (anaplastic large cell lymphoma, suspension) | 0.675 | 896 | 0.986 | > 32000 | 0.979 | > 20000 | 0.831 | 49.4 | 0.893 | 8370 | 0.982 | > 30000 | 0.794 | 963 | 0.57 | 112
2 | P31-FUJ (acute myeloid leukaemia, suspension) | 0.935 | > 5120 | 0.958 | > 32000 | 0.983 | > 20000 | 0.996 | > 100 | 0.971 | > 10000 | 0.979 | > 30000 | 0.981 | > 2560 | 0.953 | > 1200
3 | AM-38 (glioma, semi-adherent) | 0.598 | 597 | 0.748 | 10500 | 0.863 | 17800 | 0.929 | > 100 | 0.872 | 9860 | 0.979 | > 30000 | 0.978 | > 2560 | 0.915 | > 1200
4 | SK-ES-1 (Ewing sarcoma, semi-adherent) | 0.64 | 801 | 0.645 | 5190 | 0.964 | > 20000 | 0.87 | > 100 | 0.951 | > 10000 | 0.975 | > 30000 | 0.871 | > 2560 | 0.507 | 78.4
5 | LC4-1 (lymphoblastic leukaemia, suspension) | 0.746 | 1770 | 0.906 | > 32000 | 0.794 | 10300 | 0.678 | 20.8 | 0.962 | > 10000 | 0.974 | > 30000 | 0.723 | 740 | 0.53 | 91.5
6 | NCI-H322M (lung adenocarcinoma, suspension) | 0.7 | 1350 | 0.981 | > 32000 | 0.958 | > 20000 | 0.901 | > 100 | 0.9 | > 10000 | 0.983 | > 30000 | 0.985 | > 2560 | 0.951 | > 1200
7 | NCI-H1666 (lung adenocarcinoma, semi-adherent) | 0.863 | > 5120 | 0.863 | > 32000 | 0.986 | > 20000 | 0.958 | > 100 | 0.485 | 565 | 0.977 | > 30000 | 0.976 | > 2560 | 0.963 | > 1200
8 | SK-N-FI (neuroblastoma, adherent) | 0.608 | 633 | 0.989 | > 32000 | 0.986 | > 20000 | 0.963 | > 100 | 0.845 | 7120 | 0.979 | > 30000 | 0.886 | > 2560 | 0.868 | 1080
9 | MRK-nu-1 (breast, suspension) | 0.866 | 3950 | 0.933 | > 32000 | 0.914 | > 20000 | 0.083 | < 0.391 | 0.972 | > 10000 | 0.983 | > 30000 | 0.806 | 1170 | 0.16 | 7.7
10 | CHP-126 (neuroblastoma, suspension) | 0.809 | 2770 | 0.681 | 6520 | 0.928 | > 20000 | 0.972 | > 100 | 0.889 | > 10000 | 0.889 | > 30000 | 0.987 | > 2560 | 0.963 | > 1200
11 | DJM-1 (skin, adherent) | 0.734 | 1480 | 0.988 | > 32000 | 0.988 | > 20000 | 0.979 | > 100 | 0.868 | 8980 | 0.973 | > 30000 | 0.893 | > 2560 | 0.879 | > 1200
12 | HH (T-cell leukaemia, suspension) | 0.645 | 923 | 0.705 | 9280 | 0.728 | 7020 | 0.542 | 8.45 | 0.904 | > 10000 | 0.891 | > 30000 | 0.692 | 666 | 0.566 | 120
13 | DMS-79 (small cell lung carcinoma, suspension) | 0.816 | 3430 | 0.987 | > 32000 | 0.983 | > 20000 | 0.916 | > 100 | 0.983 | > 10000 | 0.984 | > 30000 | 0.931 | > 2560 | 0.85 | 1150
14 | SU-DHL-6 (B-cell lymphoma, suspension) | 0.539 | 398 | 0.985 | > 32000 | 0.827 | 8250 | 0.17 | 0.928 | 0.845 | 4620 | 0.993 | > 30000 | 0.726 | 572 | 0.157 | 10.3
15 | HL-60 (acute myeloid leukaemia, suspension) | 0.692 | 1030 | 0.743 | 9060 | 0.882 | 17500 | 0.926 | > 100 | 0.286 | 168 | 0.979 | > 30000 | 0.812 | 1200 | 0.632 | 166

IC50 is the fitted dose that halves viability relative to control wells, and lower means more sensitive; fits outside the tested doses are given as limits. AUC sums up the same curve from the lowest dose to the 256-fold higher top dose; it is 1 without any effect and falls as sensitivity rises. For part of these data: The top dose, if marked as inferred, comes from the curve model; the source does not state it.
